{
  "source": "paper PMC9911399",
  "about": "“Two distinct binding modes provide the RNA-binding protein RbFox with extraordinary sequence specificity”",
  "binders": {"B1": {"name": "CUGUCAA (DNA:RNA)", "RNA": "GGGAGACCGGAAUUCAGAUUGUCCCUGUCAAUUAAAUCCCGUCGUAGCCACCA", "DNA 1": "CAATCTGAATTCCGGTCTCCC", "DNA 2": "TGGTGGCTACGACGGGATT"}, "B2": {"name": "GGCGCCA (DNA:RNA)", "RNA": "B1 RNA with C25G, U26G, G27C, U28G, A30C", "DNA 1": "CAATCTGAATTCCGGTCTCCC", "DNA 2": "TGGTGGCTACGACGGGATT"}, "B3": {"name": "AGAGCCC (DNA:RNA)", "RNA": "B1 RNA with C25A, U26G, G27A, U28G, A30C, A31C", "DNA 1": "CAATCTGAATTCCGGTCTCCC", "DNA 2": "TGGTGGCTACGACGGGATT"}, "B4": {"name": "AGCCGAC (DNA:RNA)", "RNA": "B1 RNA with C25A, U26G, G27C, U28C, C29G, A31C", "DNA 1": "CAATCTGAATTCCGGTCTCCC", "DNA 2": "TGGTGGCTACGACGGGATT"}, "B5": {"name": "UAGUUUU (DNA:RNA)", "RNA": "B1 RNA with C25U, U26A, C29U, A30U, A31U", "DNA 1": "CAATCTGAATTCCGGTCTCCC", "DNA 2": "TGGTGGCTACGACGGGATT"}, "B6": {"name": "CGAACGA (DNA:RNA)", "RNA": "B1 RNA with U26G, G27A, U28A, A30G", "DNA 1": "CAATCTGAATTCCGGTCTCCC", "DNA 2": "TGGTGGCTACGACGGGATT"}, "B7": {"name": "UACCACA (DNA:RNA)", "RNA": "B1 RNA with C25U, U26A, G27C, U28C, C29A, A30C", "DNA 1": "CAATCTGAATTCCGGTCTCCC", "DNA 2": "TGGTGGCTACGACGGGATT"}, "B8": {"name": "GCUUAAA (DNA:RNA)", "RNA": "B1 RNA with C25G, U26C, G27U, C29A", "DNA 1": "CAATCTGAATTCCGGTCTCCC", "DNA 2": "TGGTGGCTACGACGGGATT"}, "B9": {"name": "AAGGAGC (DNA:RNA)", "RNA": "B1 RNA with C25A, U26A, U28G, C29A, A30G, A31C", "DNA 1": "CAATCTGAATTCCGGTCTCCC", "DNA 2": "TGGTGGCTACGACGGGATT"}, "B10": {"name": "AGUCCCC (DNA:RNA)", "RNA": "B1 RNA with C25A, U26G, G27U, U28C, A30C, A31C", "DNA 1": "CAATCTGAATTCCGGTCTCCC", "DNA 2": "TGGTGGCTACGACGGGATT"}, "B11": {"name": "AUCGACC (DNA:RNA)", "RNA": "B1 RNA with C25A, G27C, U28G, C29A, A30C, A31C", "DNA 1": "CAATCTGAATTCCGGTCTCCC", "DNA 2": "TGGTGGCTACGACGGGATT"}, "B12": {"name": "ACUGGAU (DNA:RNA)", "RNA": "B1 RNA with C25A, U26C, G27U, U28G, C29G, A31U", "DNA 1": "CAATCTGAATTCCGGTCTCCC", "DNA 2": "TGGTGGCTACGACGGGATT"}, "B13": {"name": "UAUCUCG (DNA:RNA)", "RNA": "GGGAGACCGGAAUUCAGAUUGUCCUAUCUCGUUAAAUCCCGUCGUAGCCACCA", "DNA 1": "CAATCTGAATTCCGGTCTCCC", "DNA 2": "TGGTGGCTACGACGGGATT"}, "B14": {"name": "GGGCUUC (DNA:RNA)", "RNA": "B13 RNA with U25G, A26G, U27G, C30U, G31C", "DNA 1": "CAATCTGAATTCCGGTCTCCC", "DNA 2": "TGGTGGCTACGACGGGATT"}, "B15": {"name": "AUAUAGC (DNA:RNA)", "RNA": "B1 RNA with C25A, G27A, C29A, A30G, A31C", "DNA 1": "CAATCTGAATTCCGGTCTCCC", "DNA 2": "TGGTGGCTACGACGGGATT"}, "B16": {"name": "AGGUAUU (DNA:RNA)", "RNA": "B1 RNA with C25A, U26G, C29A, A30U, A31U", "DNA 1": "CAATCTGAATTCCGGTCTCCC", "DNA 2": "TGGTGGCTACGACGGGATT"}, "B17": {"name": "AAGGGAC (DNA:RNA)", "RNA": "B1 RNA with C25A, U26A, U28G, C29G, A31C", "DNA 1": "CAATCTGAATTCCGGTCTCCC", "DNA 2": "TGGTGGCTACGACGGGATT"}, "B18": {"name": "ACGCCCU (DNA:RNA)", "RNA": "B1 RNA with C25A, U26C, U28C, A30C, A31U", "DNA 1": "CAATCTGAATTCCGGTCTCCC", "DNA 2": "TGGTGGCTACGACGGGATT"}, "B19": {"name": "UCACGGA (DNA:RNA)", "RNA": "B13 RNA with A26C, U27A, U29G, C30G, G31A", "DNA 1": "CAATCTGAATTCCGGTCTCCC", "DNA 2": "TGGTGGCTACGACGGGATT"}, "B20": {"name": "CCUCACA (DNA:RNA)", "RNA": "B13 RNA with U25C, A26C, U29A, G31A", "DNA 1": "CAATCTGAATTCCGGTCTCCC", "DNA 2": "TGGTGGCTACGACGGGATT"}, "B21": {"name": "GUUUCUA (DNA:RNA)", "RNA": "B1 RNA with C25G, G27U, A30U", "DNA 1": "CAATCTGAATTCCGGTCTCCC", "DNA 2": "TGGTGGCTACGACGGGATT"}, "B22": {"name": "AAUCCAA (DNA:RNA)", "RNA": "B1 RNA with C25A, U26A, G27U, U28C", "DNA 1": "CAATCTGAATTCCGGTCTCCC", "DNA 2": "TGGTGGCTACGACGGGATT"}, "B23": {"name": "GGGCUCA (DNA:RNA)", "RNA": "B13 RNA with U25G, A26G, U27G, G31A", "DNA 1": "CAATCTGAATTCCGGTCTCCC", "DNA 2": "TGGTGGCTACGACGGGATT"}, "B24": {"name": "GUUGACU (DNA:RNA)", "RNA": "B13 RNA with U25G, A26U, C28G, U29A, G31U", "DNA 1": "CAATCTGAATTCCGGTCTCCC", "DNA 2": "TGGTGGCTACGACGGGATT"}, "B25": {"name": "CUUCAUA (DNA:RNA)", "RNA": "B1 RNA with G27U, U28C, C29A, A30U", "DNA 1": "CAATCTGAATTCCGGTCTCCC", "DNA 2": "TGGTGGCTACGACGGGATT"}, "B26": {"name": "CAUCCCC (DNA:RNA)", "RNA": "B13 RNA with U25C, U29C, G31C", "DNA 1": "CAATCTGAATTCCGGTCTCCC", "DNA 2": "TGGTGGCTACGACGGGATT"}, "B27": {"name": "GGACGUG (DNA:RNA)", "RNA": "B13 RNA with U25G, A26G, U27A, U29G, C30U", "DNA 1": "CAATCTGAATTCCGGTCTCCC", "DNA 2": "TGGTGGCTACGACGGGATT"}, "B28": {"name": "CGUAGUG (DNA:RNA)", "RNA": "B13 RNA with U25C, A26G, C28A, U29G, C30U", "DNA 1": "CAATCTGAATTCCGGTCTCCC", "DNA 2": "TGGTGGCTACGACGGGATT"}, "B29": {"name": "UACAUGU (DNA:RNA)", "RNA": "B13 RNA with U27C, C28A, C30G, G31U", "DNA 1": "CAATCTGAATTCCGGTCTCCC", "DNA 2": "TGGTGGCTACGACGGGATT"}, "B30": {"name": "UUGGUUC (DNA:RNA)", "RNA": "B1 RNA with C25U, U28G, C29U, A30U, A31C", "DNA 1": "CAATCTGAATTCCGGTCTCCC", "DNA 2": "TGGTGGCTACGACGGGATT"}, "B31": {"name": "AGGUCUU (DNA:RNA)", "RNA": "B1 RNA with C25A, U26G, A30U, A31U", "DNA 1": "CAATCTGAATTCCGGTCTCCC", "DNA 2": "TGGTGGCTACGACGGGATT"}},
  "note": "Numbering of substitutions follows the chain as printed; changes in the protein carry UniProt numbers. Some of the results follow.",
  "data": [
    {"target": "T1, RBFOX1 RRM (Homo sapiens, UniProt Q9NWB1 109-208)", "T1 sequence": "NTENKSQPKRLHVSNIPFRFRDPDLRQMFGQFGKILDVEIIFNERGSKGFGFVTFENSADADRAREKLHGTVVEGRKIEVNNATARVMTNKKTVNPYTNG", "assay": "EMSA; HiTS-Eq, 1 nM pool, 10 min; buffer printed only for the single-RNA assays: 10 mM Tris pH 7.5, 150 mM NaCl, 3.4 mM EDTA, 0.001% NP-40, 30 C", "settings": "tags: His6 N-terminal (pET28a); label: 5' 32P", "summary_of_the_method": "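Purified RbFox RRM (wild type or mutant) was equilibrated for 10 min in 50 µL with 1 nM of a 5′-radiolabelled pool of RNA with 7 randomized nucleotides, its flanks annealed to DNA oligonucleotides, across increasing protein concentrations. Free RNA was separated by 8% native PAGE, excised, reverse-transcribed, PCR-barcoded and sequenced on an Illumina HiSeq 2500. Relative association constants came from read-count changes of each variant against the control reaction, normalised to the cognate motif.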", "values": [
      {"binder": "B1", "binding signal": "0.00899 KA relative to UGCAUGU"},
      {"binder": "B2", "binding signal": "0.00258 KA relative to UGCAUGU"},
      {"binder": "B3", "binding signal": "0.0053 KA relative to UGCAUGU"},
      {"binder": "B4", "binding signal": "0.00754 KA relative to UGCAUGU"},
      {"binder": "B5", "binding signal": "0.0126 KA relative to UGCAUGU"},
      {"binder": "B6", "binding signal": "0.011 KA relative to UGCAUGU"},
      {"binder": "B7", "binding signal": "0.000943 KA relative to UGCAUGU"},
      {"binder": "B8", "binding signal": "0.00504 KA relative to UGCAUGU"},
      {"binder": "B9", "binding signal": "0.00637 KA relative to UGCAUGU"},
      {"binder": "B10", "binding signal": "0.0101 KA relative to UGCAUGU"},
      {"binder": "B11", "binding signal": "0.00286 KA relative to UGCAUGU"},
      {"binder": "B12", "binding signal": "0.00627 KA relative to UGCAUGU"},
      {"binder": "B13", "binding signal": "0.00982 KA relative to UGCAUGU"},
      {"binder": "B14", "binding signal": "0.0114 KA relative to UGCAUGU"},
      {"binder": "B15", "binding signal": "0.0016 KA relative to UGCAUGU"},
      {"binder": "B16", "binding signal": "0.0064 KA relative to UGCAUGU"},
      {"binder": "B17", "binding signal": "0.00883 KA relative to UGCAUGU"},
      {"binder": "B18", "binding signal": "0.00244 KA relative to UGCAUGU"},
      {"binder": "B19", "binding signal": "0.00406 KA relative to UGCAUGU"},
      {"binder": "B20", "binding signal": "0.0028 KA relative to UGCAUGU"},
      {"binder": "B21", "binding signal": "0.0101 KA relative to UGCAUGU"},
      {"binder": "B22", "binding signal": "0.00298 KA relative to UGCAUGU"},
      {"binder": "B23", "binding signal": "0.0218 KA relative to UGCAUGU"},
      {"binder": "B24", "binding signal": "0.0189 KA relative to UGCAUGU"},
      {"binder": "B25", "binding signal": "0.00052 KA relative to UGCAUGU"},
      {"binder": "B26", "binding signal": "0.000336 KA relative to UGCAUGU"},
      {"binder": "B27", "binding signal": "0.0184 KA relative to UGCAUGU"},
      {"binder": "B28", "binding signal": "0.0132 KA relative to UGCAUGU"},
      {"binder": "B29", "binding signal": "0.0116 KA relative to UGCAUGU"},
      {"binder": "B30", "binding signal": "0.0311 KA relative to UGCAUGU"},
      {"binder": "B31", "binding signal": "0.00888 KA relative to UGCAUGU"}
    ]}
  ]
}
